Among all 360,000 compounds or so, about 16,000 (4.4%) were called active. Inconclusive means that the source gave no clear call. Such entries were picked first, then a sample of the others. The call rests on the fitted dose curve; in most records, active means well fitted inhibition curve with a large enough effect; inconclusive means small, poorly fitted or top-dose-only effect; inactive means no such curve, though single readings can be large or run the other way. A potency beside an inconclusive call is a rough fit, not a confirmed value.
These compounds were tested against Bromodomain adjacent to zinc finger domain protein 2B (Homo sapiens) (UniProt Q9UIF8) (assay: qHTS Assay for Inhibitors of BAZ2B). Conditions: AlphaScreen BAZ2B-H3K14Ac peptide displacement; activity change, negative = inhibition: at 114 µM (top of the series).
Chain of UniProt Q9UIF8 (Q9UIF8 whole entry, looked up, the tested form may be a part): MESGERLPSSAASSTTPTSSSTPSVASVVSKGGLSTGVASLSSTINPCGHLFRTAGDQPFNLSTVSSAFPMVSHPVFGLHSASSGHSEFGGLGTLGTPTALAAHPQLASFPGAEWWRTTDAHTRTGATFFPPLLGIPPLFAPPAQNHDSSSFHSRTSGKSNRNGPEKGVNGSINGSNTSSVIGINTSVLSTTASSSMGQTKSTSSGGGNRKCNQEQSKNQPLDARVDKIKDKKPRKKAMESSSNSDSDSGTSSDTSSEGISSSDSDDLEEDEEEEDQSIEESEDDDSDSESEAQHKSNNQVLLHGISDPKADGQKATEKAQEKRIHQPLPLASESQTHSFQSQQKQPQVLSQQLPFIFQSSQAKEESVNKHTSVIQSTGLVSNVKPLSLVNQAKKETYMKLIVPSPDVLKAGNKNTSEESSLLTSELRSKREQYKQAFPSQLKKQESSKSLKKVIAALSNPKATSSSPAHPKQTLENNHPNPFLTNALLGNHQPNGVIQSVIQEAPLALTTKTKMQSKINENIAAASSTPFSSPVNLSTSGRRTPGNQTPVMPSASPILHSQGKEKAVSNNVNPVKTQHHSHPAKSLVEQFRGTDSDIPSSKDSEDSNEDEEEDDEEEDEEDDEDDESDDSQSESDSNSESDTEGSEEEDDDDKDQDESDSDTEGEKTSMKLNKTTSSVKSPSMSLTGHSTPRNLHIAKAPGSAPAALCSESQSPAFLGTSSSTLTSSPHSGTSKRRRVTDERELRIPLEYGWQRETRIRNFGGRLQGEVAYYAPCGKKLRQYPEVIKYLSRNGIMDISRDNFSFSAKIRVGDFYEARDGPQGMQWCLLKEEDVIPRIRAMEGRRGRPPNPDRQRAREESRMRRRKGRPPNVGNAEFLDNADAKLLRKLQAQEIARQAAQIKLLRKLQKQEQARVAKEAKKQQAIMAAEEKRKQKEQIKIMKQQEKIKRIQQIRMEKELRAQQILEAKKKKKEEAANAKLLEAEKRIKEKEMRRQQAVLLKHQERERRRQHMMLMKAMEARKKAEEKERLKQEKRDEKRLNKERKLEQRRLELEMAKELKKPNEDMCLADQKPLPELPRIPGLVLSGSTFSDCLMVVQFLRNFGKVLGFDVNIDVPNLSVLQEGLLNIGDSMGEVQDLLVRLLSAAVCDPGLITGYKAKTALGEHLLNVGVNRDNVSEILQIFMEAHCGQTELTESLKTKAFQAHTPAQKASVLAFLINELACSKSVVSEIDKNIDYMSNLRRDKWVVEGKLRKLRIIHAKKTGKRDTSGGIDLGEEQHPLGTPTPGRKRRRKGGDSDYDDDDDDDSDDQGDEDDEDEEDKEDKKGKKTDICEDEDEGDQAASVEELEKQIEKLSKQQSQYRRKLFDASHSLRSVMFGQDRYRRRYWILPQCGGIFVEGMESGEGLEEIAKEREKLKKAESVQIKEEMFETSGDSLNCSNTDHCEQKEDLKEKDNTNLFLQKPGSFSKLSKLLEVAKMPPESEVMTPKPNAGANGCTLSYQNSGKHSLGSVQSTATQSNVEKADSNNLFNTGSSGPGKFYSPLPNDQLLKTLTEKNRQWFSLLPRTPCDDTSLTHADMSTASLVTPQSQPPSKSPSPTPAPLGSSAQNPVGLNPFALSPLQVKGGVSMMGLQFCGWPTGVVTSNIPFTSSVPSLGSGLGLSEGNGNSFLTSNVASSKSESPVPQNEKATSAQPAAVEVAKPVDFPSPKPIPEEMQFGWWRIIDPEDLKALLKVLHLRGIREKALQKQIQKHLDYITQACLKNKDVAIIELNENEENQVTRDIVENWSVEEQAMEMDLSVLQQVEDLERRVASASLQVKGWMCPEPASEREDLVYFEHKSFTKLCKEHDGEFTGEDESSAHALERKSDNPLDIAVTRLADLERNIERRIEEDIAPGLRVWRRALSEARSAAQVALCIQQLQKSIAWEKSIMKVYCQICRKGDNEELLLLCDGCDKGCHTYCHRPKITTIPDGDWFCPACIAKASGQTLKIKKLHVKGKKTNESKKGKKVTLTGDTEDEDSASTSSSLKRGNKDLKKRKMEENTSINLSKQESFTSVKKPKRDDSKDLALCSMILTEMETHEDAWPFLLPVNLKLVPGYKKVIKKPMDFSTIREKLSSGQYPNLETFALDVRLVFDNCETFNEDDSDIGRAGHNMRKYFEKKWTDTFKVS
Outline: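 BAZ2B 50 nM plus b-H3(5-23)K14Ac 50 nM, PBS pH 7.4/0.01% Tween-20, 30 min RT; compound added (max 110 uM), 30 min RT; streptavidin donor/Ni-chelate acceptor beads 10 ug/mL final, 20 min dark; AlphaScreen read.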
Further: nearly all actives have a fitted effect of over 60% in size.
On the % scale 0 is the no-effect control and ±100 the full control effect; potency means the concentration at half of the fitted maximal effect; tags describe the fitted curve by direction and shape.

Compound	Potency	activity change, negative = inhibition
Cc1c(N=Nc2c(O)n(Cc3ccccc3)c(=O)[nH]c2=O)c(=O)n(-c2ccccc2)n1C	active: 10 µM	
COC(=O)C1=C(c2c(C)noc2C)C[C@@H]2CC[C@H]1N2C(=O)NCCCOC(C)C		inactive: 8.62%
Cc1ccc(N2C(=O)NC(=O)/C(=C\c3cc(C)n(-c4cc(C(=O)O)cc(C(=O)O)c4)c3C)C2=O)cc1	inconclusive: 79.4 µM [inhibitor, single point]	
CCOc1ccc(C(=O)Nc2ccc3nc(SCCOc4ccccc4)sc3c2)cc1	inconclusive: 22.4 µM [inhibitor, single point]	
O=C(c1cn(Cc2ccccc2)c2ccccc12)N1CCCCC1		inactive: -7.46%
COc1ccc(OCc2n[nH]c(=S)n2Cc2ccco2)cc1	inconclusive: 63.1 µM [inhibitor, partial curve, poor fit]	
O=C(O)CCn1cc(C=C2C(=O)NC(=S)NC2=O)c(-c2cc3ccccc3oc2=O)n1	active: 50.1 µM	
Cc1ccc(CCNC(=O)Cn2nc(C)c3c(C)n(-c4ccc(C)cc4)nc3c2=O)cc1	inconclusive: 89.1 µM [inhibitor, single point]	
O=c1[nH]c(=O)n(Cc2ccco2)c(O)c1C=NCc1cccs1	inconclusive: 89.1 µM [inhibitor, single point]	
O=C1NC(=O)N(c2ccccc2F)C(=O)/C1=C/c1ccc(Oc2ccc([N+](=O)[O-])cn2)cc1	active: 56.2 µM	
FC(F)(F)c1ccc(CNCCc2c[nH]c3ccccc23)cc1	inconclusive: 44.7 µM [inhibitor, partial curve]	
O=C1NC(=S)N(c2ccccc2)C(=O)/C1=C/c1ccco1	active: 20 µM	
O=C(O)CCn1cc(C=C2C(=O)NC(=S)NC2=O)c(-c2ccccc2)n1	active: 79.4 µM	
COC(=O)C1C=C2c3cccc4[nH]cc(c34)CC2N(C)C1 (stereo not given)	active: 39.8 µM	
Cc1cccc(N2C(=O)CC(=O)NC2=O)c1		inactive: -2.2%
CN1C(=O)NC(=O)/C(=C/c2ccc([N+](=O)[O-])o2)C1=O	active: 50.1 µM	
CC(C)(C)NC(=S)/N=C(\N)N[N+](=O)[O-]	inconclusive: 79.4 µM [inhibitor, single point]	
COC(=O)C1=C(c2ccc(-c3ccccc3)c(F)c2)C[C@@H]2CC[C@H]1N2C(=O)N1CCc2cc(OC)c(OC)cc2C1	inconclusive: 79.4 µM [inhibitor, single point]	
COc1ccc(CCN(C)Cc2ccc(F)cc2F)cc1OC	inconclusive: 89.1 µM [inhibitor, single point]	
COc1ccc(C(c2nnnn2CC2CCCO2)N2CCN(c3ccccc3)CC2)cc1 (stereo not given)	active: 50.1 µM	

Reference: PubChem BioAssay AID504333 (National Center for Advancing Translational Sciences (NCATS), 2011)
